Laboratory results: the supplement of paper PMC8821664
Structures can show the parent of a compound that is named as a salt. The list shows a part of the results. Repeats are few or missing, and single values can be far off. Starred links: 1 amine or outer side, 2 acyl side, 3 side chain; linkers in the order of their positions; H or OH if unused. Positions of bridges follow the written chain, without caps; N, C: chain ends. Non-standard residues stand in square brackets, D forms with d. Residues, ends and D or L forms follow the SMILES beside them. ξ: configuration not given here. *: point of attachment. Nip(3R) = O=C([C@@H]1CCCN([*:1])C1)[*:2]; X1 = N=C1NCCC([C@H](N[*:1])C(=O)[*:2])N1; ΔAla(Z-3-ureido) = NC(=O)N/C=C(\N)C(=O)O; Ile(3ξ) = CCC(C)[C@H](N)C(=O)O; ξβ3hOrn = NCCCC(N)CC(=O)*; Dap = NC[C@H](N)C(=O)O

System: Beas-2B AQP5-HiBiT reporter cells
Assay: AQP5-HiBiT luminescence relative to vehicle (ratio to vehicle); higher = higher AQP5-HiBiT protein abundance
Conditions: 10 µM; 18 h
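Also: monoclonal Beas-2B line stably carrying CMV promoter-driven AQP5-HiBiT, 5,000 cells per well in 384-well plates, lytic HiBiT plus LgBiT NanoLuc luminescence, FDA-approved drug library screen.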

SMILES	AQP5-HiBiT luminescence
C#C[C@]1(OC(C)=O)CC[C@H]2[C@@H]3CCC4=C[C@@H](OC(C)=O)CC[C@@H]4[C@H]3CC[C@@]21C [Ethynodiol diacetate]	0.74
OC(CCN1CCCCC1)(c1ccccc1)C1CC2C=CC1C2 (stereo not given) [Bipariden]	0.767
COc1c(N2CCNC(C)C2)c(F)cc2c(=O)c(C(=O)O)cn(C3CC3)c12 (stereo not given)	0.872
Cc1cccc(Nc2ccccc2C(=O)O)c1C [Mefenamic acid]	1.46
Nc1cc(N2CCCCC2)nc(N)[n+]1[O-] [Minoxidil]	0.819
O=C(O)c1ccc(-n2nc(-c3ccccc3O)nc2-c2ccccc2O)cc1 [Deferasirox]	0.815
COC(=O)N[C@H](C(=O)N[C@@H](Cc1ccccc1)[C@@H](O)CN(Cc1ccc(-c2ccccn2)cc1)NC(=O)[C@@H](NC(=O)OC)C(C)(C)C)C(C)(C)C [Atazanavir sulfate]	0.699
Cc1ccccc1C(=O)Nc1ccc(C(=O)N2CCCC(O)c3cc(Cl)ccc32)c(C)c1 (stereo not given) [Tolvaptan]	0.801
CNC(=O)c1ccc(N2C(=S)N(c3ccc(C#N)c(C(F)(F)F)c3)C(=O)C2(C)C)cc1F [Enzalutamide (MDV3100)]	0.815
CC1(C)S[C@@H]2[C@H](NC(=O)[C@H](N)c3ccc(O)cc3)C(=O)N2[C@H]1C(=O)O [Amoxicillin]	0.578
CN(C)CCc1c[nH]c2ccc(C[C@H]3COC(=O)N3)cc12 [Zolmitriptan]	0.782
CCCCOc1ccc(OCCCN2CCOCC2)cc1 [Pramoxine hydrochloride]	0.791
CCC(C)[C@H](NC(=O)[C@H](CCCN=C(N)N)NC(=O)[C@H](CCC(=O)O)NC(=O)[C@@H]1CCCN(C(=O)[C@H](CO)NC(=O)[C@@H](NC(=O)[C@@H](N)CCCN=C(N)N)C(C)CC)C1)C(=O)N[C@@H](CC(=O)O)C(=O)N[C@@H](C)C(=O)N[C@@H](CC(C)C)C(=O)O (stereo partly drawn) [Risperidal] (H-R[Ile(3ξ)]S[Nip(3R)]ER[Ile(3ξ)]DAL-OH)	1.13
CC[C@]1(O)C[C@H]2CN(CCc3c([nH]c4ccccc34)[C@@](C(=O)OC)(c3cc4c(cc3OC)N(C=O)[C@H]3[C@@](O)(C(=O)OC)[C@H](OC(C)=O)[C@]5(CC)C=CCN6CC[C@]43[C@@H]65)C2)C1 [Vincristine sulfate]	3.21
CC(O)(P(=O)(O)O)P(=O)(O)O [Sodium etidronate]	0.978
COc1cc(C(C)=O)ccc1OCCCN1CCC(c2noc3cc(F)ccc23)CC1 [Iloperidone]	1.03
CN[C@H]1C(=O)N[C@@H]2Cc3ccc(cc3)Oc3cc4cc(c3O[C@@H]3O[C@H](C(=O)O)[C@@H](O)[C@H](O)[C@H]3NC(=O)CCCCCCCCC(C)C)Oc3ccc(cc3Cl)[C@@H](O)[C@@H]3NC(=O)[C@H](NC(=O)[C@@H]4NC(=O)[C@@H](NC2=O)c2cc(cc(O)c2Cl)Oc2cc1ccc2O)c1ccc(O)c(c1)-c1c(O[C@H]2O[C@H](CO)[C@@H](O)[C@H](O)[C@@H]2O)cc(O)cc1[C@@H](C(=O)NCCCN(C)C)NC3=O [Dalbavancin hydrochloride]	0.916
N[C@@H](Cc1cc(I)c(Oc2ccc(O)c(I)c2)c(I)c1)C(=O)O [Liothyronine sodium]	1.01
CCC[C@H](NC(=O)[C@@H]1[C@H]2CCC[C@H]2CN1C(=O)[C@@H](NC(=O)[C@@H](NC(=O)c1cnccn1)C1CCCCC1)C(C)(C)C)C(=O)C(=O)NC1CC1 [Telaprevir (VX-950)]	1.01
CC(C)NCC(O)c1ccc(O)c(O)c1 (stereo not given) [Isoprenaline hydrochloride]	1.03

SMILES	AQP5-HiBiT luminescence
CC(CN1c2ccccc2Sc2ccccc21)N(C)C (stereo not given) [Promethazine hydrochloride]	1.24
CCN(CC)C(=O)[C@@]1(c2ccccc2)C[C@H]1CN [Levomilnacipran]	1.02
Cc1nc(Nc2ncc(C(=O)Nc3c(C)cccc3Cl)s2)cc(N2CCN(CCO)CC2)n1 [Dasatinib]	0.298
NC(=O)N1c2ccccc2C=Cc2ccccc21 [Carbamazepine]	0.784
C[C@@H]1NC(=O)[C@@H](N)CNC(=O)[C@H](C2CCNC(=N)N2)NC(=O)/C(=C/NC(N)=O)NC(=O)[C@H](CNC(=O)CC(N)CCCN)NC1=O.N=C1NCCC([C@@H]2NC(=O)/C(=C/NC(N)=O)NC(=O)[C@H](CNC(=O)CC(N)CCCN)NC(=O)[C@H](CO)NC(=O)[C@@H](N)CNC2=O)N1 (stereo partly drawn) [Capastat sulfate] (H-[Dap]S[Dap](ξβ3hOrn)[ΔAla(Z-3-ureido)][X1]; lactam 1-C)	0.763
CC12CC3CC(C)(C1)CC(N)(C3)C2 [Memantine hydrochloride]	1.17
CC(=O)OCC(=O)[C@@]12OC(C)(C)O[C@@H]1C[C@H]1[C@@H]3C[C@H](F)C4=CC(=O)C=C[C@]4(C)[C@@]3(F)[C@@H](O)C[C@@]12C [Fluocinonide]	0.953
CCOc1nc2cccc(C(=O)O)c2n1Cc1ccc(-c2ccccc2-c2noc(=O)[nH]2)cc1 [Azilsartan]	0.911
CCOC(=O)N[C@@H]1CC[C@@H]2[C@@H](C1)C[C@H]1C(=O)O[C@H](C)[C@H]1[C@H]2/C=C/c1ccc(-c2cccc(F)c2)cn1 [Vorapaxar sulfate]	0.835
N#CC1(c2ccc(NC(=O)c3cccnc3NCc3ccncc3)cc2)CCCC1 [Apatinib]	0.464
N[C@@H](Cc1ccc(O)c(O)c1)C(=O)O [Levodopa]	0.727
CCCc1nn(C)c2c(=O)[nH]c(-c3cc(S(=O)(=O)N4CCN(C)CC4)ccc3OCC)nc12 [Sildenafil citrate]	0.723
CCOC(=O)c1ccc(C#Cc2ccc3c(c2)C(C)(C)CCS3)nc1 [Tazarotene]	1.15
COCCc1ccc(OCC(O)CNC(C)C)cc1 (stereo not given) [Metoprolol Succinate (ToprolX)]	1.96
CCCCN1CCCCC1C(=O)Nc1c(C)cccc1C (stereo not given) [Bupivacaine hydrochloride]	1.04
COCC(=O)Nc1c(I)c(C(=O)NCC(O)CO)c(I)c(C(=O)N(C)CC(O)CO)c1I (stereo not given) [Iopromide]	0.7
O=C1CCCC(=O)C1C(=O)c1ccc(C(F)(F)F)cc1[N+](=O)[O-] [Nitisinone]	0.827
COc1cc2nccc(Oc3ccc(NC(=O)C4(C(=O)Nc5ccc(F)cc5)CC4)cc3)c2cc1OC	0.417
C=C[C@H]1CN2CC[C@H]1C[C@H]2[C@H](O)c1ccnc2ccc(OC)cc12 [Quinine]	1.06
C#C[C@]1(O)CC[C@H]2[C@@H]3CCc4cc(O)ccc4[C@H]3CC[C@@]21C [Ethynyl estradiol]	0.905
